# Measured values as given in PubChem BioAssay AID1508642 (National Center for Advancing Translational Sciences (NCATS), 2021).
# In all, about 43,000 compounds went through this assay and about 200 (0.47%) were called active. Another 12% or so got no clear call; they are omitted. The call rests on the fitted dose curve; in most records, active means well fitted cell-killing curve with a large enough effect; inconclusive means small, poorly fitted or top-dose-only effect, or effect the other way; inactive means flat fitted curve, though single readings scatter. This is one part of the list.
# Experiment: Cell viability qHTS assay in S16 Pmp22-F2sN cells; further: nearly all actives have a fitted effect of over 65% in size
# Conditions: S16 Pmp22-F2sN Schwann cells (luciferase reporters placed in the Pmp22 gene) viability, CellTiter-Glo, 24 h; series mostly up to 57.5 µM; activity change, negative = cytotoxicity: at the top concentration
# Summary of the method: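 Rat S16 Schwann reporter line, 24 h treatment with library compounds delivered at 23 nL per well. Cell viability by CellTiter-Glo luminescence.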
# On the % scale 0 is the no-effect control and ±100 the full control effect; potency means the concentration at half of the fitted maximal effect.
Compound,"activity change, negative = cytotoxicity",Potency
CCOc1ccc(CN2C(=O)c3ccccc3Sc3ccc(C(=O)NCc4ccc(C)cc4)cc32)cc1,inactive: -2.62%,–
COc1cccc(CSc2nc3n(n2)C(c2ccccc2C)C(C(=O)Nc2ccccc2OC)=C(C)N3)c1 (stereo unspecified),inactive: 1.3%,–
Cc1nc2nc(SCC(=O)NC(C)c3ccccc3)nn2c(C)c1Cc1c(F)cccc1Cl (stereo unspecified),inactive: 3.81%,–
Cc1cccc(C(=O)Nc2ccc(N3CCC(CCN4CCOCC4)CC3)c(C(=O)O)c2)c1,inactive: -0.585%,–
O=C(Nc1ccc(S(=O)(=O)N2CCC(c3nc4ccccc4s3)CC2)cc1)c1ccccc1F,inactive: 9.29%,–
CCOC(=O)c1nc(Nc2cccc(C)c2)c2ccccc2n1,inactive: 7.04%,–
CCCCCOc1ccc(C(=O)N(Cc2ccccc2)C2CCS(=O)(=O)C2)cc1 (stereo unspecified),inactive: -2.67%,–
CCOc1ccc(CNC(=O)CCn2cccn2)cc1OC,inactive: 8.37%,–
CCN(C(=O)NCc1noc2ccccc12)c1cc(C)ccc1C,inactive: -0.508%,–
Cc1ccccc1-c1noc(CSc2nnc(Cc3ccccc3)n2-c2ccc(F)cc2)n1,inactive: -19.7%,–
CCC(C)n1c(=N)c(S(=O)(=O)c2ccc(C)cc2)cc2c(=O)n3cc(C)ccc3nc21 (stereo unspecified),inactive: -2.3%,–
CCOC(=O)N1CCc2c(sc(NCc3ccc(OC)c(Br)c3)c2C(=O)Nc2cc(OC)ccc2OC)C1,inactive: 22.7%,–
CCOC(=O)c1ccccc1NC(=O)N(Cc1ccc(C)cc1)Cc1cccn1-c1nnc(N2CCCC2=O)s1,inactive: 0.0247%,–
COc1cccc(NC(=O)Cn2c(=O)n(CCCC(=O)NCc3ccc4c(c3)OCO4)c(=O)c3ccccc32)c1,inactive: 17.8%,–
Cc1ccc(CNC(=O)c2c(-c3ccccc3F)noc2C)o1,inactive: -10.6%,–
CC(C)CCn1c(SCc2ccc(F)cc2Cl)nc2ccsc2c1=O,inactive: 17.6%,–
CC1=C(C(=O)Nc2ccccc2)C(c2ccc(C(=O)O)cc2)n2nc(SCC(=O)c3ccc(C)cc3)nc2N1 (stereo unspecified),inactive: -3.5%,–
CCc1ccc(-c2[nH]c3c(c2-c2c(-n4cccc4)n(C)c(=O)n(C)c2=O)c(=O)n(C)c(=O)n3C)cc1,inactive: 18.5%,–
CCN(CC)CCn1c(=N)n(CC(O)COc2ccccc2C)c2ccccc21 (stereo unspecified),–,active: 28.2 µM
Cc1ccc(Cn2c(=O)c3c(nc4n3CCN4c3cc(C)cc(C)c3)n(C)c2=O)cc1,inactive: 5.38%,–
Cc1ccc(-n2ncc3c(NNC(=O)c4ccccc4C)ncnc32)cc1,inactive: 9.87%,–
COc1ccc(-c2c(C)nn3c(N4CCC(C(=O)NCCC(C)C)CC4)cc(C)nc23)cc1OC,inactive: 6.43%,–
CC(C)c1ccc(C2c3c(-c4ccccc4O)n[nH]c3C(=O)N2CCc2ccccc2)cc1 (stereo unspecified),inactive: -4.31%,–

Compound,"activity change, negative = cytotoxicity",Potency
CCCN1CCN(CC2=C(C(=O)OCC)C(c3ccc(Cl)cc3)NC(=O)N2)CC1 (stereo unspecified),inactive: -9.33%,–
COc1ccc(Cl)cc1NC(=O)CCCn1c(=O)c2cccn2c2cccnc21,inactive: -0.906%,–
COc1ccc(CNC(=O)Cc2c(C)c3c(cc(C)c4c(C)coc43)oc2=O)cc1,inactive: 0.942%,–
COc1ccc(-c2nc(CCNC(=O)c3cc(OC)c(OC)c(OC)c3)cs2)cc1,inactive: 0.8%,–
COCCCNC(=O)c1ccc(NC(=O)N2CCCCc3ccccc32)cc1,inactive: 19.4%,–
Cc1c(C(=O)NCCN(C)C)oc2c1-c1nn(Cc3ccccc3Cl)cc1CC2,inactive: -3.43%,–
CCOC(=O)c1ccc(Nc2nc(C)cc(C)n2)cc1,inactive: -4.11%,–
CC(Sc1nc(-c2ccccc2)c(C#N)c(=O)[nH]1)C(=O)Nc1ccc(F)cc1 (stereo unspecified),inactive: 4.09%,–
COc1ccc(N(CC(=O)N2CCN(c3cc(C)ccc3C)CC2)S(=O)(=O)c2c(C)noc2C)cc1,inactive: 1.71%,–
COc1ccccc1-c1c(C)nn2c(N3CCN(c4ccc(Cl)cc4)CC3)cc(C)nc12,inactive: -2.83%,–
COC(=O)c1ccc2nc(C)cc(Nc3ccc(O)cc3)c2c1,inactive: 2.48%,–
CC(Sc1ncc(S(=O)(=O)c2ccc(C(C)C)cc2)c(N)n1)C(=O)Nc1ccccc1 (stereo unspecified),inactive: 5.13%,–
COc1ccc(NC(=O)Cn2c(=O)n(-c3ccc(Cl)cc3)c(=O)c3c(C)c(C(=O)N(C)C)sc32)cc1Cl,inactive: -6.51%,–
Cc1ccc(CSc2nc(=O)c3c(C)cc(C)nc3n2C2CC2)cc1,inactive: -20.6%,–
O=C(NC1CC(=O)N(c2ccccc2)C1)C1CCCC1 (stereo unspecified),inactive: 3.57%,–
Cc1ccc2c(c1)c(=O)c1ccccc1n2CCCC(=O)Nc1ccc(F)cc1F,inactive: -21.4%,–
O=S(=O)(c1ccccc1)c1nc(-c2cccc(Cl)c2)oc1NCc1ccccc1,inactive: 13%,–
COc1ccc(Br)c2c1-c1nc(NC(=O)c3ccccc3SC)sc1C2,inactive: 12%,–
CCOc1ccc(N2CC(c3nc4ccccc4n3CCCOc3ccc(OC)cc3)CC2=O)cc1 (stereo unspecified),inactive: -17.6%,–
COCCNC(=O)CSc1nnc(-c2ccc(OC)c(OC)c2)c(-c2ccc(OC)c(OC)c2)n1,inactive: -15.8%,–
Cc1cccc(C2NC(=O)c3c(sc4c3CCN(C)C4)N2)c1O (stereo unspecified),inactive: -2.06%,–
CCOC(=O)c1ccc(NC2=CC(c3ccc(Br)cc3)N(c3ccc(C(=O)OCC)cc3)C2=O)cc1 (stereo unspecified),inactive: 7.37%,–
COC(=O)c1cc(Cl)c(NC(=O)/C=C/c2ccc(Cl)cc2Cl)cc1OC,inactive: 1.58%,–
